B1: OR4K15 (parent)
chain: GUUAACGGUCAUAGGCCAUGGAAACUAGGAGCACCAUUUCGCUGCCAGUGAAGAAAUGAACAAAGAAAAUCUGGGCCAGGCAGGCAUCAAAAGAAAUAGUCUUGCGCUCAACCAGAAAGUCUGUAAUCAUUUUAAGGGUA

The source gives no read counts; variants with many changes may rest on few reads.

The variants in this series derive from B1. In words: self-cleavage, relative activity (ratio to wild type); higher = more cleavage; in vitro, sequencing; the parent is a self-cleaving ribozyme.
As to A62G A91G G136A, the self-cleavage was 0.64.
On to U57C A129C U130C, for which the self-cleavage came out at 0.87.
The same measure for A59G A94G A95G U100C U120C: 2.34; for A56U A59G A66G A118G: 0.32; for A60G A64G A91G A94U U120C U132C: 0.26.
The same measure for A59G A67G U87C: 1.34; for A60G A114G A126G: 0.31; for U57C A78G U102C: 0.24.
As to A60G A63C U122C, the self-cleavage was 0.92.
On to A62G A67G A94U A110U U131C, for which the self-cleavage is 0.83.
Turning to A56G U102C U103C U132C, the self-cleavage came to 0.11.
Regarding A60G A91G A98G, the self-cleavage turned out to be 0.25.
The same measure for A60G A63G G74A G136A: 0.
Regarding A56G U108A U122C, the self-cleavage was determined as 0.
Regarding A59G A68U A91U A117G, the self-cleavage stood at 1.83.
The same measure for A60G A86G U100G: 0.74; for A62G U108A A135G: 0.03; for A60G U120C U127C: 0.65.
Take A59U A86G A96G C121U: the self-cleavage came to 0.93.
The same measure for U57A A67G C77U A94G U130C: 1.37; for A59G A111C A114U: 0; for A62G A67G U70C: 0.97.
Regarding A62G A67G U139A, the self-cleavage worked out at 1.41.
The same measure for A59G A91G A126G: 1.18.
Turning to A62G U70C A110G U122A, the self-cleavage was 0.02.
The result for A59G A91G A117U reads 0.66; that for U57C A95G A118G, 1.19; that for U57C A60G A82U A89U U139C, 0.22.
The result for A60G U103C C121A U124C A126G reads 1.26; that for A59U A62G A114G A117U, 0.37.
With A60G A67U U120A, the self-cleavage was 0.8.
A62U A66G A110G: the self-cleavage was 0.17.
The same measure for A60U U72A U87C A129G: 0.11; for A62G U87A A126G: 1.01.
The same measure for A59G A95G A98U U108C: 0.
The same measure for U57C A66G U87C: 1.38; for A56U A59G A82U: 0.12; for A59G A95G U100C: 2.36.
With A59G A91G A110G U120C, the self-cleavage was determined as 0.04.
The same measure for A60G A95G A129G: 1.44; for A56G U108C U132A: 0.02.
As to A60G A82G U87C A91U A111G, the self-cleavage was 0.02.
With A60G A64U A67G A94G U133C, the self-cleavage was 0.81.
The result for U57C A92G A116G A135U reads 1.08.
The result for A62G A90G A114G A117G U120C reads 0.02; that for A62G A63G U70C U139A, 0.7; that for A62C A86G A89G, 1.36.
Regarding C61A U124C A126G, the self-cleavage came out at 0.95.
The result for A60G U87C A96G U100C U131C reads 2.47; that for A59G A66G A89G A118U, 0.4; that for A59U C81A A95G U108C, 0.02.
The result for A62G A68G U102C reads 1.43.
The same measure for A60U U70C U108C: 0.02.
In the case of A60G A66G A96G, the self-cleavage came out at 0.81.
On to U57A A63G U72C A95G, for which the self-cleavage was found to be 0.2.
The same measure for U57C A67G A91G A98U: 1.38; for A59U A68G A94G U122C: 0.29.
As for U57C A82G A96G, the self-cleavage came to 0.31.
For A62G A92C U102C, the self-cleavage is 2.2.
On to G58U A69G A90G U120C A140G, for which the self-cleavage is 0.3.
The same measure for A60G G119A U122A: 1.85.
Turning to A60G A63G A91G U100C, the self-cleavage came to 2.26.
In the case of A62G U130C U131C, the self-cleavage is 1.04.
The result for U57A A60G A94G A95G U130C reads 0.52; that for A60G C76G G99A U122A, 0.09.
The same measure for U57G A69U U100A G106U: 0.01; for A59G U72C A82U A98C U130C: 0.08.
For A59G A63G A90G A111U U122A, the self-cleavage turned out to be 0.
As for U57C A67G C76A, the self-cleavage was determined as 0.16.
For the variant U57C A114G A118G, the self-cleavage worked out at 0.05.
Regarding U57G U122C U133A, the self-cleavage was determined as 0.35.
Consider A60G U72C C105U, for which the self-cleavage was 0.02.
The same measure for A59G C101U U108C: 0.01.
Regarding U57C A64G A129U, the self-cleavage amounted to 0.97.
The result for U57G A62G A82G A118G G123A reads 0.08; that for U57C A64G A111U A140G, 0.04; that for A60G U103C A126G, 0.4.
As to U57A A67G U130G, the self-cleavage is 1.16.
The same measure for A60G U122G A126U: 1.75.
On to A62G A66G A86U, for which the self-cleavage stood at 1.64.
The result for C61U A66G A68G reads 1.3; that for A60G A82G A117G A118G, 0.19.
For A59G A78G A82G, the self-cleavage stood at 0.17.
As to A60G A94G U102C, the self-cleavage was determined as 1.44.
The result for U57C A67G U120C reads 0.37.
The result for A60G A86U C112U reads 0.02.
As to C61U A95U U108A, the self-cleavage came out at 0.02.
Regarding C61U A69G U70A, the self-cleavage turned out to be 0.93.
As for A56G U102C A140G, the self-cleavage came to 1.71.
The result for A60G A69G A78U U100A reads 0.04; that for G58U A129G U131C, 0.88.
With A59U A90G A94U U131C, the self-cleavage is 0.2.
Consider U57C A96G U103A, for which the self-cleavage came out at 0.17.
For A60G A69C A114U, the self-cleavage amounted to 0.02.
The same measure for A60U A68U A98G U122C: 0.43; for A62G A86G U122C: 1.71.
With A60G A63G A82G A89G A94G A125G U139C, the self-cleavage amounted to 0.2.
The result for A60G A64C U72C A94G A118U reads 0.05; that for A59G A78G U108C A116G U120C, 0; that for A62G A68G C81U A89G U131C, 0.08.
The same measure for A59G U87C A89G: 0.73; for A56G U102A U130C: 0.97; for A59G U108G U133C A134G: 0.01.
With A59U A96G A116U, the self-cleavage came out at 0.41.
In the case of A59G A63U A64G U97A C105U, the self-cleavage was found to be 0.1.
Take A62G A118U A126C: the self-cleavage is 0.32.
The same measure for A62G A69U A116U U130A: 0.27.
For A60G A62G G106A, the self-cleavage was found to be 0.03.
As for U57A A59G A63G A114G, the self-cleavage came to 0.32.
The same measure for A60G U87C A110G: 0.08; for A59G C105U U120C: 0.05; for A59G A86G U102C U103C A116G A117G A118C: 0.
The same measure for A62G U72C A82C U131C A140G: 0.06; for A62G A63G A111G: 0.02; for A59G A63G A82U: 0.24.
The same measure for A60G A78G A117G: 0.15.
Turning to A59G U72C A90G, the self-cleavage was 0.29.
The result for U57C A91G A118U reads 0.15; that for A62G G93A A94G A140G, 1.34.
Regarding A60G U100C U103C, the self-cleavage came to 1.92.
On to A62G A66G A90G, for which the self-cleavage was determined as 0.82.
The same measure for A60G U108C U122A: 0; for A62G A110G A134G: 0.13; for A59G A60G U72G: 0.37.
Consider A62G A111G U122C A135U, for which the self-cleavage came out at 0.01.
Turning to U57G A125G U130C, the self-cleavage was determined as 0.33.
A60G A63U U127C G137A: the self-cleavage was determined as 0.94.
Consider A60G A116G A126G, for which the self-cleavage amounted to 0.24.
A59G U87C A140G: the self-cleavage amounted to 0.67.
The same measure for C61A A116U A129G: 0.1; for C61U A69G U87C: 1.21; for A56U A90G A114U: 0.01.
Regarding A60G A67G A117G, the self-cleavage was found to be 1.83.
The same measure for A60G A95G U100C U127C: 1.72; for A60G U72C A95G A98C: 0.17; for A59G A60G A111U: 0.11.
As for U57C A86G A89G U108C, the self-cleavage is 0.
The result for A59G A66G A95G A114G A126G U130C reads 0.42.
Regarding A59G U102A A135G, the self-cleavage was determined as 1.82.
Regarding U57C A68G G137U, the self-cleavage was 0.96.
The result for G58U A64G U70C U122C reads 0.3; that for U57C A94G A114G A135U, 0.14; that for U57C A64G A135G, 0.82.
The same measure for A59U U108C A117G U122C A126G: 0.01; for G58U A68G A95U U102C: 2.26.
Turning to U57A C85A A118G A135G, the self-cleavage was 0.93.
On to A62G C105U C107A A125G, for which the self-cleavage was 0.
On to U57G A126G U132C, for which the self-cleavage was 0.14.
In the case of U57A G79A A110G, the self-cleavage was 0.03.
As to A60G A90G U127A, the self-cleavage is 0.89.
In the case of A59U A78G A86G, the self-cleavage turned out to be 0.14.
The result for A59G A69G A135G A140G reads 1.33.
For the variant A60U A68G U97C, the self-cleavage was determined as 1.43.
The result for A60G A68G A90U A92G U103C C107U reads 0; that for A62G A78G C105U, 0.1; that for A62G A86U U102C A111G, 0.01.
In the case of U57C A63G U120C, the self-cleavage is 0.16.
Consider A62G A64G A67G A118G A135G, for which the self-cleavage is 0.62.
Regarding U57C A96G A111G, the self-cleavage was determined as 0.02.
With A59U A90G A110G, the self-cleavage was 0.1.
With A60G A118U A126G, the self-cleavage worked out at 0.21.
As to A59G A110G A129G, the self-cleavage came out at 0.14.
On to A59G U70C U87C A140G, for which the self-cleavage came out at 0.37.
Turning to A60G A68G C77U U130C, the self-cleavage is 2.29.
Consider A59U U139A A140G, for which the self-cleavage came to 1.36.
For A59G A78U U132C, the self-cleavage was determined as 0.61.
On to A59G U87C A92G U100C A114U, for which the self-cleavage came out at 0.05.

The values are drawn from the RNAGym collection of RNA variant scans (doi:10.7554/elife.90254).
